Source: patent US20250313546A1, “NUCLEIC ACID BINDERS” (UNIVERSITY OF STRATHCLYDE, priority 2022, published 2025)
≈ marks a conversion by molar mass, not a printed value.

Columns and labels:
[1] = tested on: T. congolense IL3000 (a drug sensitive wild type); assay: Resazurin-based (Alamar blue) drug sensitivity assay; conditions: Trypanosoma congolense, read-out: IC50 T. congo
[2] = tested on: A. fumigatus TR34/L98H (F10017, an azole resistant strain); conditions: Aspergillus fumigatus, read-out: MIC99 A. fumigatus TR34/L98H
Description: The Minimum Inhibitory Concentration (MIC, at 99% inhibition) of the compounds was determined using the broth microdilution method as recommended by EUCAST (EUCAST Definitive Document E.DEF 9.3.2, Method for the determination of broth dilution minimum inhibitory concentrations of antifungal agents for conidia forming moulds and EUCAST Definitive Document E.DEF 7.3.2 Method for the determination of broth dilution minimum inhibitory concentrations of antifungal agents for yeasts).

[3] = tested on: T. b. brucei Lister S427 (a drug-sensitive wild type); assay: Resazurin-based (Alamar blue) drug sensitivity assay; conditions: for T.b. brucei Selectivity Indices (SI, IC50 (μM)/IC50 (μM)) Group / T.b. brucei Selectivity Index (SI, IC50 (μM)/IC50 (μM)), numeric value: cytotoxicity against HEK293 cells vs T.b. brucei; for IC50: Trypanosoma brucei, read-out: IC50 T.b. brucei
[4] = tested on: T. b. brucei B48 (a strain resistant to diamidines and melaminophenyl arsenicals); assay: as above; conditions: Trypanosoma brucei, read-out: IC50 T.b. brucei B48
Description: A detailed description of the procedure for evaluating activity against trypanosomes, using an Alamar Blue (resazurin) assay, is described below.
The bloodstream form (BSF) T. b. brucei s427 (see De Koning, H. P. et al., Mol. Biochem. Parasitol. 2000, 106, 181-185), T. evansi AntTat 3/3 (see Dean, S. et al., Proc. Natl. Acad. Sci. USA, 2013, 110, 14741-14746), and T. equiperdum (see Stewart, M. L. et al., Eukaryot. Cell, 2010, 9, 336-343) were cultured in HMI-9 medium (Life Technologies, Paisley, United Kingdom) supplemented with 10% heat inactivated Foetal Bovine Serum (FBS (PAA Laboratories Linz, Austria)), 14 μL/L β-mercaptoethanol (BDH, Dorset, UK), and 3.0 g/L NaHCO3 (Sigma-Aldrich) and adjusted to pH 7.4. These cell lines were maintained at 37° C. in a humidified, 5% CO2 environment.
A resazurin-based (Alamar blue) drug sensitivity assay was used to assess and compare the activity of standard trypanocides in the different cell lines investigated (see Gould, M. K. et al., Anal. Biochem., 2008, 382, 87-93). Briefly, 23 doubling dilutions of the test compound of the invention, starting at 100 μM, and a compound-free control were prepared in 100 μL medium in a 96-well white plate (Greiner Bio-one, Frickenhausen, Germany). The cells were adjusted to 2×10^4 cells/mL for T. b. brucei and T. equiperdum; 4×10^4 cells/mL for T. evansi; and 5×10^5 cells/mL for T. congolense in the appropriate medium. 100 μL of the adjusted cells was then added to the wells containing drug dilutions and incubated for 48 h under respective culture condition. Thereafter, 20 μL of 125 mg/mL resazurin sodium dye was added, and the plate was incubated for a further 24 h. The resorufin fluorescence in each well of the plate was determined and used to calculate the Half maximal effective concentration (EC50) of the drug, as described in Carruthers, L. V. et al., Mol. Microbiol., 2021, 116, 564-588.

Structure (SMILES): CN(C)c1ccc(/C=C/c2ccc(C(=O)Nc3c[nH]c(C(=O)Nc4cc(C(=O)NCCC(=N)N)n(C)c4)c3)cn2)cc1 [IIIa5, (E)-N-(5-((5-((3-amino-3-iminopropyl)carbamoyl)-1-methyl-1H-pyrrol-3-yl)carbamoyl)-1H-pyrrol-3-yl)-6-(4-(dimethylamino)styryl)nicotinamide]
- IC50 [1]: 250 to 1000 nM
- MIC99 [2]: 5 to 25 µg/mL (≈ 8.81 to 44 µM)
- T.b. brucei Selectivity Indices (SI, IC50 (μM)/IC50 (μM)) Group ([3]; Alkyl Amidines and NH Pyrroles): B (Group B: 70 < SI <= 150)
- IC50 [3]: 250 to 1000 nM
- IC50 [4]: 250 to 1000 nM

Structure (SMILES): COCCOCC[N+](C)(C)CCNC(=O)c1cc(NC(=O)c2cc(NC(=O)c3ccc(/C=C/c4cnc5ccccc5c4)cc3)cn2C)cn1C [Ic18, (E)-2-(2-methoxyethoxy)-N,N-dimethyl-N-(2-(1-methyl-4-(1-methyl-4-(4-(2-(quinolin-3-yl)vinyl)benzamido)-1H-pyrrole-2-carboxamido)-1H-pyrrole-2-carboxamido)ethyl)ethan-1-aminium]
- IC50 [1]: 50 to 250 nM
- MIC99 [2]: 25 to 50 µg/mL
- T.b. brucei Selectivity Indices (SI, IC50 (μM)/IC50 (μM)) Group ([3]; Quaternary ammoniums): B (Group B: 40 < SI <= 80)
- IC50 [3]: 50 to 250 nM

Structure (SMILES): C/N=C(/CCNC(=O)c1cc(NC(=O)c2cc(NC(=O)c3ccc(/C=C/c4cnc5ccccc5c4)cc3)cn2C)cn1C)NC [Ia10, 1-methyl-4-(1-methyl-4-(4-((E)-2-(quinolin-3-yl)vinyl)benzamido)-1H-pyrrole-2-carboxamido)-N—((Z)-3-(methylamino)-3-(methylimino)propyl)-1H-pyrrole-2-carboxamide]
- IC50 [1]: < 50 nM
- MIC99 [2]: 5 to 25 µg/mL (≈ 8.11 to 40.5 µM)
- IC50 [3]: 50 to 250 nM

Structure (SMILES): Cn1cc(NC(=O)c2cc(NC(=O)c3ccc(/C=C/c4cnc5ccccc5c4)cc3)cn2C)cc1C(=O)NCCC(=N)N1CCSCC1 [Ib7, (E)-N-(3-imino-3-thiomorpholinopropyl)-1-methyl-4-(1-methyl-4-(4-(2-(quinolin-3-yl)vinyl)benzamido)-1H-pyrrole-2-carboxamido)-1H-pyrrole-2-carboxamide]
- IC50 [1]: 50 to 250 nM
- MIC99 [2]: 5 to 25 µg/mL (≈ 7.41 to 37 µM)
- T.b. brucei Selectivity Indices (SI, IC50 (μM)/IC50 (μM)) Group ([3]; Alkyl Amidines and NH Pyrroles): D (Group D: SI > 300)
- IC50 [3]: 50 to 250 nM
- T.b. brucei Selectivity Index (SI, IC50 (μM)/IC50 (μM)), numeric value [3]: 332

Structure (SMILES): CCCCCNC(=N)CCNC(=O)c1cc(NC(=O)c2cc(NC(=O)c3ccc(/C=C/c4cnc5ccccc5c4)cc3)cn2C)cn1C [Ia35, (E)-N-(3-imino-3-(pentylamino)propyl)-1-methyl-4-(1-methyl-4-(4-(2-(quinolin-3-yl)vinyl)benzamido)-1H-pyrrole-2-carboxamido)-1H-pyrrole-2-carboxamide]
- IC50 [1]: 50 to 250 nM
- MIC99 [2]: > 50 µg/mL
- IC50 [3]: 50 to 250 nM

Structure (SMILES): CCNC(=N)CCNC(=O)c1cc(NC(=O)c2cc(NC(=O)c3ccc(/C=C/c4ccc(OC)cc4)nc3)cn2C)cn1C [Ia24, (E)-N-(5-((5-((3-(ethylamino)-3-iminopropyl)carbamoyl)-1-methyl-1H-pyrrol-3-yl)carbamoyl)-1-methyl-1H-pyrrol-3-yl)-6-(4-methoxystyryl)nicotinamide]
- IC50 [1]: 50 to 250 nM
- MIC99 [2]: 25 to 50 µg/mL (≈ 41.9 to 83.8 µM)
- T.b. brucei Selectivity Indices (SI, IC50 (μM)/IC50 (μM)) Group ([3]; Alkyl Amidines and NH Pyrroles): B (Group B: 70 < SI <= 150)
- IC50 [3]: 250 to 1000 nM

Structure (SMILES): CC/N=C(\N)CCNC(=O)c1cc(NC(=O)c2cc(NC(=O)c3ccc(/C=C/c4cnc5ccccc5c4)cc3)cn2C)cn1C [Ia14, N—((Z)-3-amino-3-(ethylimino)propyl)-1-methyl-4-(1-methyl-4-(4-((E)-2-(quinolin-3-yl)vinyl)benzamido)-1H-pyrrole-2-carboxamido)-1H-pyrrole-2-carboxamide]
- IC50 [1]: 50 to 250 nM
- MIC99 [2]: 25 to 50 µg/mL (≈ 40.5 to 81.1 µM)
- T.b. brucei Selectivity Indices (SI, IC50 (μM)/IC50 (μM)) Group ([3]; Alkyl Amidines and NH Pyrroles): D (Group D: SI > 300)
- IC50 [3]: < 50 nM
- T.b. brucei Selectivity Index (SI, IC50 (μM)/IC50 (μM)), numeric value [3]: 863

Structure (SMILES): Cn1cc(NC(=O)c2cc(NC(=O)c3ccc(/C=C/c4cnc5ccccc5c4)cc3)cn2C)cc1C(=O)NCCC(=N)N1CCOCC1 [Ib5, (E)-N-(3-imino-3-morpholinopropyl)-1-methyl-4-(1-methyl-4-(4-(2-(quinolin-3-yl)vinyl)benzamido)-1H-pyrrole-2-carboxamido)-1H-pyrrole-2-carboxamide]
- IC50 [1]: 50 to 250 nM
- MIC99 [2]: 5 to 25 µg/mL (≈ 7.59 to 37.9 µM)
- T.b. brucei Selectivity Indices (SI, IC50 (μM)/IC50 (μM)) Group ([3]; Alkyl Amidines and NH Pyrroles): D (Group D: SI > 300)
- IC50 [3]: 50 to 250 nM
- T.b. brucei Selectivity Index (SI, IC50 (μM)/IC50 (μM)), numeric value [3]: 346

Structure (SMILES): CCCCNC(=N)CCNC(=O)c1cc(NC(=O)c2cc(NC(=O)c3ccc(/C=C/c4cnc5ccccc5c4)cc3)cn2C)cn1C [Ia34, (E)-N-(3-(butylamino)-3-iminopropyl)-1-methyl-4-(1-methyl-4-(4-(2-(quinolin-3-yl)vinyl)benzamido)-1H-pyrrole-2-carboxamido)-1H-pyrrole-2-carboxamide]
- IC50 [1]: 50 to 250 nM
- MIC99 [2]: 25 to 50 µg/mL (≈ 38.8 to 77.5 µM)
- T.b. brucei Selectivity Indices (SI, IC50 (μM)/IC50 (μM)) Group ([3]; Alkyl Amidines and NH Pyrroles): B (Group B: 70 < SI <= 150)
- IC50 [3]: 50 to 250 nM
- T.b. brucei Selectivity Index (SI, IC50 (μM)/IC50 (μM)), numeric value [3]: 130

Structure (SMILES): [H]/N=C(\CCNC(=O)c1cc(NC(=O)c2cc(NC(=O)c3ccc(C=Cc4ccc(N(C)C)cc4)nc3)cn2C)cn1C)NC [Ia9, (E)-6-(4-(dimethylamino)styryl)-N-(5-((5-((3-imino-3-(methylamino)propyl)carbamoyl)-1-methyl-1H-pyrrol-3-yl)carbamoyl)-1-methyl-1H-pyrrol-3-yl)nicotinamide]
- IC50 [1]: 250 to 1000 nM
- MIC99 [2]: 5 to 25 µg/mL (≈ 8.39 to 42 µM)
- IC50 [3]: 250 to 1000 nM

Structure (SMILES): [H]/N=C(\CCNC(=O)c1cc(NC(=O)c2cc(NC(=O)c3ccc(C=Cc4ccc5nonc5c4)cc3)cn2C)cn1C)N1CCCCC1 [Ib2, (E)-4-(4-(2-(benzo[c][1,2,5]oxadiazol-5-yl)vinyl)benzamido)-N-(5-((3-imino-3-(piperidin-1-yl)propyl)carbamoyl)-1-methyl-1H-pyrrol-3-yl)-1-methyl-1H-pyrrole-2-carboxamide]
- IC50 [1]: < 50 nM
- MIC99 [2]: 5 to 25 µg/mL (≈ 7.72 to 38.6 µM)
- IC50 [3]: < 50 nM

Structure (SMILES): C/N=C(/CCNC(=O)c1cc(NC(=O)c2cc(NC(=O)c3ccc(/C=C/c4nc5ccccc5s4)cc3)cn2C)cn1C)NC [Ia11, 4-(4-((E)-2-(benzo[d]thiazol-2-yl)vinyl)benzamido)-1-methyl-N-(1-methyl-5-(((Z)-3-(methylamino)-3-(methylimino)propyl)carbamoyl)-1H-pyrrol-3-yl)-1H-pyrrole-2-carboxamide]
- IC50 [1]: 50 to 250 nM
- MIC99 [2]: 5 to 25 µg/mL (≈ 8.03 to 40.1 µM)
- IC50 [3]: 250 to 1000 nM

Structure (SMILES): Cn1cc(NC(=O)c2cc(NC(=O)c3ccc(/C=C/c4cnc5ccccc5c4)cc3)cn2C)cc1C(=O)NCCC(=N)N1CCCCC1 [Ib1, (E)-N-(3-imino-3-(piperidin-1-yl)propyl)-1-methyl-4-(1-methyl-4-(4-(2-(quinolin-3-yl)vinyl)benzamido)-1H-pyrrole-2-carboxamido)-1H-pyrrole-2-carboxamide]
- IC50 [1]: < 50 nM
- MIC99 [2]: 5 to 25 µg/mL (≈ 7.61 to 38.1 µM)
- T.b. brucei Selectivity Indices (SI, IC50 (μM)/IC50 (μM)) Group ([3]; Alkyl Amidines and NH Pyrroles): B (Group B: 70 < SI <= 150)
- IC50 [3]: < 50 nM

Structure (SMILES): [H]/N=C(\CCNC(=O)c1cc(NC(=O)c2cc(NC(=O)c3ccc(C=Cc4ccc5nonc5c4)cc3)cn2C)cn1C)N1CCOCC1 [Ib6, (E)-4-(4-(2-(benzo[c][1,2,5]oxadiazol-5-yl)vinyl)benzamido)-N-(5-((3-imino-3-morpholinopropyl)carbamoyl)-1-methyl-1H-pyrrol-3-yl)-1-methyl-1H-pyrrole-2-carboxamide]
- IC50 [1]: 250 to 1000 nM
- MIC99 [2]: 25 to 50 µg/mL (≈ 38.5 to 77 µM)
- IC50 [3]: > 1000 nM

Structure (SMILES): C/N=C(/CCNC(=O)c1cc(NC(=O)c2cc(NC(=O)c3ccc(/C=C/c4ccc5nonc5c4)cc3)cn2C)cn1C)NC [Ia6, 4-(4-((E)-2-(benzo[c][1,2,5]oxadiazol-5-yl)vinyl)benzamido)-1-methyl-N-(1-methyl-5-(((Z)-3-(methylamino)-3-(methylimino)propyl)carbamoyl)-1H-pyrrol-3-yl)-1H-pyrrole-2-carboxamide]
- IC50 [1]: < 50 nM
- MIC99 [2]: < 5 µg/mL
- IC50 [3]: 50 to 250 nM

Structure (SMILES): [H]/N=C(\CCNC(=O)c1cc(NC(=O)c2cc(NC(=O)c3ccc(C=Cc4ccc5nonc5c4)cc3)cn2C)cn1C)N1CCSCC1 [Ib8, (E)-4-(4-(2-(benzo[c][1,2,5]oxadiazol-5-yl)vinyl)benzamido)-N-(5-((3-imino-3-thiomorpholinopropyl)carbamoyl)-1-methyl-1H-pyrrol-3-yl)-1-methyl-1H-pyrrole-2-carboxamide]
- IC50 [1]: 50 to 250 nM
- MIC99 [2]: 5 to 25 µg/mL (≈ 7.51 to 37.5 µM)
- IC50 [3]: < 50 nM
